Results on 53 molecules are retold here after ChEMBL document CHEMBL4888484, “Replenishing the malaria drug discovery pipeline: Screening and hit evaluation of the MMV Hit Generation Library 1 (HGL1) against asexual blood stage Plasmodium falciparum ,using a nano luciferase reporter read-out” (2022).

In general, % Inhibition refers to the relative decrease from the control value, in per cent.

SMILES strings stand for the structures. Out of some 150,000 compounds screened, about 540 (0.36%) showed an effect of 50% or more. This is one part of the list.

For the test, the system named is Plasmodium falciparum. Briefly: Primary screen in NF54 nanoGlo assay, in single point, at 2uM, 72h; a lower Z score goes with more inhibition. It is filed as functional, Erythrocyte. To be noted: timepoint 72 hour.
As for `CCc1nc(C)sc1C(=O)N1CCN(C(C)C)[C@@H](CC)C1`, the “% Inhibition” value amounted to 5% and the Z score is given as -0.49.

In the case of `CC1CN(C(=O)Cc2c[nH]c3ccccc23)CC(C)O1` (stereo unspecified), the “% Inhibition” value is reported as -7% and the Z score is 1.

For `Cc1cc(NC(=O)Nc2ccc3c(c2)OCO3)no1`, the “% Inhibition” value is reported as -6% and the Z score is listed as 0.73.

As to `Cn1nc(C(=O)Nc2nc3ccccc3[nH]2)c2ccccc2c1=O`, the “% Inhibition” value is recorded as -13% and the Z score is given as 1.22.

Regarding `O=C(c1ccc(Cl)cc1)N1CCN(c2nc3cc(Br)ccc3n3cccc23)CC1`, the “% Inhibition” value is reported as -4% and the Z score came out at 0.85.

In the case of `CC(=O)NCC(=O)NCC1CCN(c2cc(-c3ccc(Cl)cc3)n[nH]2)CC1`, the “% Inhibition” value is given as -10% and the Z score is 1.05.

`O=C(CCC1CCN(Cc2ccccc2C(F)(F)F)CC1)NCc1ccc(F)cc1`: the “% Inhibition” value worked out at 8% and the Z score is given as -1.02.

For `O=C(Nc1cccc(Cl)c1)Nc1cc(S(=O)(=O)N2CCOCC2)ccc1NC[C@H]1CCCO1`, the “% Inhibition” value was -6% and the Z score is 0.92.

For `OCCc1cnn(Cc2cnn(-c3ccccc3)n2)c1`, the “% Inhibition” value is recorded as -6% and the Z score worked out at 0.62.

As to `CC1CN(C(=O)OC(C)(C)C)CC1C(=O)NC1CCC(=O)N(C)C1` (stereo unspecified), the “% Inhibition” value was found to be 0% and the Z score was found to be 0.

`CCN(C(=O)c1nc(C)oc1C)C(C)C(O)c1ccccc1` (stereo unspecified): the “% Inhibition” value is on record as -9% and the Z score worked out at 0.91.

Take `COC(=O)Cc1csc(CNC(=O)COCc2ccccc2C)n1`: the “% Inhibition” value is -6% and the Z score turned out to be 1.31.

In the case of `CC(C)C(=O)NCc1ccc(-c2ccoc2)cc1`, the “% Inhibition” value is listed as -10% and the Z score amounted to 1.11.

For `Cn1ncc(Cl)c1CN1CCC(O)(Cc2cccc(F)c2)CC1`, the “% Inhibition” value is listed as -9% and the Z score is on record as 1.46.

In the case of `O=C(Nc1nc(-c2ccc3c(c2)OCCO3)cs1)[C@@H]1COc2ccccc2O1`, the “% Inhibition” value is recorded as -7% and the Z score is 0.75.

With `O=C1NC(=O)[C@@]2(CCCN(C(=O)Nc3cccc4ccsc34)C2)N1`, the “% Inhibition” value amounted to 9% and the Z score was -1.18.

As for `Cc1c(C(=O)NCc2ccccc2CN2CCOCC2)cccc1N(C)S(C)(=O)=O`, the “% Inhibition” value worked out at 1% and the Z score is -0.08.

As for `O=C1CCC2(CCN(C(=O)[C@H]3CCOC3)CC2)CN1Cc1ccco1`, the “% Inhibition” value is reported as -8% and the Z score came out at 1.51.

As to `Cc1ccc(N(C)C(=O)N2CCN(c3ccccn3)CC2)cc1`, the “% Inhibition” value is listed as -2% and the Z score amounted to 0.38.

In the case of `Cc1nnc(N2CCC[C@H](n3ccc(C(F)(F)F)n3)C2)o1`, the “% Inhibition” value is -9% and the Z score was determined as 1.34.

Take `CCC1CN(C(=O)c2csc(CN)n2)CC(C)O1` (stereo unspecified): the “% Inhibition” value is -4% and the Z score was found to be 0.45.

Regarding `CO[C@@H](C(=O)N(c1nc(-c2ccccc2)c(C)s1)c1cccc(Cl)c1Cl)c1ccccc1`, the “% Inhibition” value is on record as -9% and the Z score was found to be 1.22.

Turning to `Cc1c([C@@H]2CCCN2Cc2cccc3[nH]ccc23)cnn1C`, the “% Inhibition” value was 4% and the Z score is -0.77.

In the case of `CCn1c(C(=O)Nc2ccccn2)nnc1N1CCC(OC)CC1`, the “% Inhibition” value is listed as -15% and the Z score came to 1.98.

Turning to `CCn1c(CC2CCNCC2)nn(Cc2cc(C)cc(C)c2)c1=O`, the “% Inhibition” value was -16% and the Z score stood at 2.

As to `O=C(Nc1nccs1)c1cc(N2CCC(Cc3ccccc3)CC2)nc2ccccc12`, the “% Inhibition” value is on record as 3% and the Z score is listed as -0.35.

Take `c1cc(-c2nc([C@H]3CCOC3)no2)cc(-n2cnnc2)n1`: the “% Inhibition” value was -6% and the Z score is 1.12.

With `CCc1nc(C)c(C(=O)Nc2nn(CC(F)(F)F)c3cccc(OC(C)C)c23)o1`, the “% Inhibition” value is -14% and the Z score is listed as 1.34.

`COCc1sccc1C(=O)NCC1(S(C)(=O)=O)CCCCC1`: the “% Inhibition” value is recorded as 0% and the Z score is on record as -0.01.

In the case of `COc1cc(OC)cc(C(=O)N/C(=N/c2ccccc2)NCCN2CCOCC2)c1`, the “% Inhibition” value was -9% and the Z score is listed as 0.85.

Regarding `CCN1CCN(C(=O)c2ccc(OC)c(S(=O)(=O)N3CCCCC3)c2)CC1`, the “% Inhibition” value is recorded as -8% and the Z score was found to be 1.29.

Take `CCS(=O)(=O)N(C)C1CCN(C(=O)Cn2cnc3c2CCCC3)CC1`: the “% Inhibition” value stood at 12% and the Z score was -1.37.

Turning to `CCc1nc(C)sc1Cn1ccnc1-c1ccc(C#CCO)s1`, the “% Inhibition” value is -13% and the Z score came out at 1.88.

Regarding `COc1ccc(NC(=O)c2nc(-n3ccnc3)ncc2Br)cc1`, the “% Inhibition” value is on record as -8% and the Z score is 0.92.

In the case of `O=C(c1cncc(Br)c1)N1CC(Oc2nc3ccccc3s2)C1`, the “% Inhibition” value is -9% and the Z score amounted to 0.96.

For the molecule `Cc1cc(=O)[nH]c2ccc(-c3cccc(C(=O)N4C[C@@H](C)O[C@@H](C)C4)c3)cc12`, the “% Inhibition” value is 7% and the Z score was -0.94.

With `COCc1ccc(C(=O)N(CCN(C)C)CC(C)C)cc1`, the “% Inhibition” value is 4% and the Z score is listed as -0.53.

With `COCCCNC(=O)c1nn2c(C)cc(C)nc2c1-c1ccc(OC)c(S(=O)(=O)N2CCCCC2)c1`, the “% Inhibition” value is -9% and the Z score is 0.88.

Take `Cc1ccc(-c2noc(CN3C(=O)CCC3=O)n2)cc1`: the “% Inhibition” value was -19% and the Z score is recorded as 2.29.

Consider `CC(C)(C)c1cc(C(=O)NC2(c3ncon3)CCOCC2)[nH]n1`, for which the “% Inhibition” value was -9% and the Z score is 0.96.

Take `COc1ccc([C@H](CO)N(C)CC(=O)N2CCCCCCC2)cc1`: the “% Inhibition” value is -1% and the Z score stood at 0.15.

On to `O=C(Cc1ccccc1F)NC1(c2ccccc2)CCOCC1`, for which the “% Inhibition” value was -7% and the Z score worked out at 0.93.

Consider `COc1cc(NC(=O)c2c(OC)cccc2OC)ccc1N1CCCCC1=O`, for which the “% Inhibition” value is -4% and the Z score was determined as 0.62.

Consider `CCNC(=O)N1CC(C(=O)NCC2CC2)C(c2cccc(OC)c2OC)C1` (stereo unspecified), for which the “% Inhibition” value is -11% and the Z score is 1.5.

In the case of `O=C(Cc1ccc(OC(F)F)c(F)c1)N[C@H]1CCn2ccnc21`, the “% Inhibition” value was determined as 12% and the Z score is -1.58.

For the molecule `CC(C)[C@H]1CN(S(=O)(=O)c2cccnc2)C[C@@H]1N(C)C`, the “% Inhibition” value was 1% and the Z score is -0.23.

Consider `CCOc1cccc(CN(CCO)c2ncnc3oc(C)nc23)c1`, for which the “% Inhibition” value is recorded as -12% and the Z score is listed as 1.56.

Regarding `O=C(Nc1ccccc1)N1CCc2nc(N3CCc4ccccc4C3)nc(Oc3cccc(F)c3)c2C1`, the “% Inhibition” value is recorded as 10% and the Z score is given as -1.2.

With `O=C1NCCC[C@@H]1Oc1nc2ccccc2s1`, the “% Inhibition” value came out at 4% and the Z score is recorded as -0.54.

Consider `COCC1(CNC(=O)N(C)CCn2ccc3ccccc32)CCC1`, for which the “% Inhibition” value was -7% and the Z score is 1.19.

Turning to `CN1C(=O)NC[C@H]1c1nc(-c2ccc(N3CCCCC3)cc2)no1`, the “% Inhibition” value is on record as 9% and the Z score is recorded as -1.79.

As for `Cc1ccc(-n2nc3c(c2NC(=O)c2cccs2)CS(=O)(=O)C3)cc1C`, the “% Inhibition” value is listed as -14% and the Z score was found to be 2.33.

For `COCCCN1CC(=O)N[C@@H]2CN(Cc3ccncc3)CC[C@@H]2OCc2cccc(c2)Oc2ccc(cc2OC)CCC1=O`, the “% Inhibition” value is on record as -2% and the Z score was found to be 0.27.
